From the RNAGym collection of RNA variant scans (doi:10.1093/nar/gkz1192)
The source gives no read counts; variants with many changes may rest on few reads.

B1: CPEB3 Ribozyme (parent)
chain: UAACAGGGGGCCACAGCAGAAGCGUUCACGUCGCAGCCCCUGUCAGAUUCUGGUGAAUCUGCGAAUUCUGCUGUAUAUCUC

Variants of: B1
Experiment: self-cleavage, relative activity (ratio to wild type); higher = more cleavage; in vitro, sequencing
Summary of the method: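 For each CPEB3 ribozyme variant, relative activity is its cleaved/total read fraction divided by the unmutated ribozyme's. Barcoded error-prone PCR libraries were transcribed by T7 RNA polymerase (5 hours, 37°C) and held in DNase I for 15 min before an EDTA stop, with cleavage occurring throughout. Template-switching reverse transcription and Illumina sequencing were used to read the RNAs. A 5-read minimum applied, and results are the mean of three batches.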

Variant | self-cleavage
G9U G33U A45G C50G G61A | 0.09
G9U G36A U48C A57G | 0.1
G9U G36A U60C | 0.31
G9U G42A U49C | 0.11
G9U G42A U67C U69A | 0.04
G9U U25A A28G U51C | 0.07
G9U U25A U41C U51C A56G A65G U67C | 0.03
G9U U25A U41G G52U U66A | 0.05
G9U U25A U66C U69C | 0.05
G9U U25A U72C | 0.07
G9U U25C A28G C34U U54C | 0.14
G9U U25C A56U | 0.06
G9U U25C C39A | 0.07
G9U U25C U69A U72C | 0.06
G9U U25G A47U A56G U80A | 0.06
G9U U26C A47G U76A | 0.21
G9U U26C C37U U51G | 0.15
G9U U26C U31A | 0.05
G9U U26C U43C A47G G61A A64U | 0.05
G9U U26C U48C G63U A77G | 0.05
G9U U26G U31C | 0.14
G9U U31C A35U A64U U72A | 0.03
G9U U31C A45G U74C | 0.26
G9U U31C U49C G52U A65U U69A | 0.04

Variant | self-cleavage
G9U U31C U51C U67C | 0.08
G9U U41A A45U | 0.04
G9U U41A A56G | 0.17
G9U U41C G52C | 0.36
G9U U41C G70A | 0.06
G9U U41C U43C U67A | 0.15
G9U U41C U48C A56G A77U | 0.17
G9U U41C U51A | 0.12
G9U U41C U54A U67A U74C | 0.06
G9U U41G U48A A56G A65U U78C | 0.08
G9U U43A A45G U67C A77G | 0.09
G9U U43A A47U U51A | 0.14
G9U U43A U69C U78C | 0.07
G9U U43C A64G | 0.06
G9U U43C G46U U69A | 0.04
G9U U43C U72C | 0.39
G9U U48C C59U | 0.36
G9U U48C U49C U67C | 0.06
G9U U48C U58C U76G | 0.06
G9U U49C A64G | 0.14
G9U U49C A64G U72A A75U | 0.05
G9U U49C U54A G61U | 0.03
G9U U49C U66C | 0.08
G9U U54C A64G | 0.18

Variant | self-cleavage
G9U U58A U60C | 0.08
G9U U60A A77U | 0
G9U U69C U72C | 0.13
G9U U76C A77G | 0.19
G10A A13C C32A U51C U54C A56G | 0.22
G10A A13C U51C U54C | 0.22
G10A A13G A15G A45U U74A U80G | 0.03
G10A A13G A21U U54C A56U U66C U72A | 0.03
G10A A13G A45U U48G A56U | 0.1
G10A A13G C38U U67A U80C | 0.05
G10A A13G C38U U80C | 0.04
G10A A13G C39U A77G | 0.3
G10A A13G U31A | 0.06
G10A A13G U49A | 0.05
G10A A13G U51A U74A U80A | 0.12
G10A A13U A18G C29U U54G U69C A75G | 0.05
G10A A13U A18G U41C | 0.09
G10A A13U A18G U51C A56G | 0.1
G10A A13U A20G U25C | 0.05
G10A A13U C23G C32A C38U A64G U80C | 0.02
G10A A13U C23U G36A U41C U43G | 0.04
G10A A13U U25G U48C U69C | 0.19
G10A A13U U26G A35G U43C A47G U49A | 0.06
G10A A15C U25C U51C | 0.32

Variant | self-cleavage
G10A A15C U26A G63A | 0.26
G10A A15C U31A G42C | 0.06
G10A A15C U49C | 0.36
G10A A15G A64G | 0.1
G10A A15G A75G | 0.07
G10A A15G U31C A65U U72G U74C | 0.05
G10A A15G U41A U67C | 0.03
G10A A15G U41C | 0.13
G10A A15G U54G G55U | 0.13
G10A A15G U66C | 0.21
G10A A15U A18G C32U U49A U51A U74C | 0.12
G10A A15U A18G U41A U78A | 0.02
G10A A15U A20U U41C | 0.07
G10A A15U A35U A77U | 0.22
G10A A15U A35U U41G U48C A56G U72A | 0.07
G10A A15U A45G U49A U72C | 0.13
G10A A15U A64U U66C | 0.05
G10A A15U C29G | 0.23
G10A A15U U41A U54A A56C U69A U80A | 0.05
G10A A15U U48C A57U | 0.23
G10A A15U U48C U60C U78C | 0.08
G10A A15U U66C | 0.04
G10A A15U U66C U72C | 0.07
G10A A15U U69A | 0.11

Variant | self-cleavage
G10A A18C A28G G73U | 0.06
G10A A18G A20G U67C U80C | 0.06
G10A A18G A20U U41C | 0.07
G10A A18G A45G U54C A64G U78C | 0.06
G10A A18G C32U U51A U54A U74C A77U | 0.21
G10A A18G C40U U43G | 0.06
G10A A18G G30A U76C | 0.04
G10A A18G U25A U26C A45U A47G U69A | 0.03
G10A A18G U25C U41G U72G U78C | 0.04
G10A A18G U26C A28U U41C U51A | 0.07
G10A A18G U31C | 0.17
G10A A18G U43G U51C | 0.14
G10A A18G U48A A64G | 0.18
G10A A18G U48C C59A C68U A77C | 0.09
G10A A18G U48C U69A | 0.19
G10A A18G U67A U80A | 0.05
G10A A18U A20G U43A | 0.05
G10A A18U A20U U31C G46A | 0.16
G10A A18U A28U C29G U54G A56G C79U | 0.04
G10A A18U C32A C39U A56G U80C | 0.06
G10A A18U C39A U74C A75C | 0.15
G10A A18U G52C U76C | 0.05
G10A A18U U41A U51A U54C | 0.05
G10A A18U U41A U66C U78C | 0.04

Variant | self-cleavage
G10A A18U U48C G70C | 0.04
G10A A20G A21G | 0.33
G10A A20G A45U U60A U69A | 0.06
G10A A20G A47C | 0.24
G10A A20G A47G | 0.13
G10A A20G A65G U66C | 0.05
G10A A20G C38A U43C U48C | 0.37
G10A A20G G24A U72A U74A A77G | 0.04
G10A A20G G61A U72C | 0.04
G10A A20G U26A U48C A64G U69C | 0.07
G10A A20G U26C U67C | 0.05
G10A A20G U31G A45G U60G | 0.04
G10A A20G U41C U49C U72C | 0.1
G10A A20G U48A | 0.25
G10A A20G U49C | 0.08
G10A A20G U54A | 0.09
G10A A20G U67C | 0.1
G10A A20U A28G | 0.05
G10A A20U A28U A45U A77U | 0.03
G10A A20U C40G U41A U66A U69C | 0.07
G10A A20U C50G U54C U74C | 0.06
G10A A20U U43C | 0.04
G10A A20U U67C | 0.26
G10A A21C U69C U78A | 0.05

Variant | self-cleavage
G10A A21G A35G A45G | 0.31
G10A A21G A64G U69A | 0.07
G10A A21G G22A U26C | 0.1
G10A A21G U26C A35G U67A | 0.24
G10A A21G U26C A64U U67A | 0.06
G10A A21G U26C U43C | 0.23
G10A A21U A65U U66C | 0.04
G10A A21U U41C | 0.05
G10A A21U U43A U69A | 0.05
G10A A28G A35G U43C U76C | 0.09
G10A A28G A45G G46A | 0.16
G10A A28G A64U | 0.12
G10A A28G U31A A64G | 0.05
G10A A28G U54C U60C G63U U78C | 0.06
G10A A28G U67C U72C U76C | 0.24
G10A A28U A64U | 0.3
G10A A28U A65G | 0.1
G10A A28U C38G U41C A45G U51A | 0.05
G10A A35C A47G U60A | 0.07
G10A A35C A64G U80C | 0.12
G10A A35G A57G | 1.08
G10A A35G A65G | 0.25
G10A A35G G52U | 0.72
